Data from PubChem BioAssay AID624202 (National Center for Advancing Translational Sciences (NCATS), 2012).
Hit rate of the full screen: of about 380,000 compounds, about 4,000 (1.1%) were called active. Inconclusive results, whose numbers are uncertain, are shown with a selection of clear calls. Calls come from the whole dose curve; as a rule, active = well fitted activation curve with a large enough effect; inconclusive = small, poorly fitted or top-dose-only effect; inactive = no such curve, though single readings can be large or run the other way. Potencies of inconclusive entries are doubtful fits and often do not repeat.

Assay: qHTS Assay to Identify Small Molecule Activators of BRCA1 Expression; note: nearly all actives have a fitted effect of over 80% in size
Conditions: MCF7-BRCA1-FFLuc reporter, luminescence, 48 h; activation: at 46.1 µM (top of the series), scaled: vehicle 0%, 10 µM genistein 100% unless noted
Text: Functionally, BRCA1 has been implicated in a wide array of cellular activities, including DNA damage repair, cell-cycle checkpoint control, growth inhibition, apoptosis, transcriptional regulation, chromatin remodeling, protein ubiquitylation, and mammary stem cell self-renewal and differentiation. Reduction in BRCA1 levels is associated with an increase in tumor growth and resistance to anti-estrogenic agents, such as tamoxifen, while an increase in BRCA1 expression leads to cell growth arrest and apoptosis. […] The frequent loss of BRCA1 expression in invasive breast cancers in the absence of somatic mutation has been attributed to numerous mechanisms, including hypermethylation of the BRCA1 promoter, exaggerated ubiquitylation of BRCA1 protein, and improper intracellular localization. […] Basal-like breast cancers (BLBCs) are associated with an aggressive clinical course, resistance to chemotherapy, and typically lack expression of estrogen receptor (ER), progesterone receptor (PR), and epidermal growth factor receptor 2 (HER2). BLBCs account for 10-17% of all breast cancers, have few therapeutic options, and are considered the biggest unmet need in the treatment of breast cancer. Conversely, tumors which maintain expression of functional BRCA1 are almost uniformly luminal type cancers, and are accordingly associated with more indolent clinical courses, responsiveness to endocrine therapies, and improved survival.
As such, it is possible that an increase in BRCA1 expression would enable cellular differentiation and restore tumor suppressor function, resulting in delayed tumor growth and less aggressive, more treatable breast cancers. The long term goal of this proposal is to develop a novel prevention or therapeutic agent for breast cancer patients. To accomplish this goal, the overall objective of this proposal is to access the resources provided by the NIH Molecular Libraries Roadmap Initiative and the Molecular Libraries Probe Production Centers Network (MLPCN) to discover and develop new chemical activator probes that will increase BRCA1 expression and function.
NIH Molecular Libraries Probe Production Network [MLPCN]
NIH Chemical Genomics Center [NCGC]
PI Name: Lisa Harlan-Williams, University of Kansas Medical Center
5microl of MCF7-BRCA1-FFLuc cell suspension (400 cells/microl in phenol-red free MEM) are dispensed into Greiner white solid bottom 1536-well assay plates, yielding a final well density of 2000 cells/well. Plates are incubated for 2 hours at 37 degrees C in 5% humidified CO2 to allow cell attachment. Compounds are then transferred via Kalypsys pin tool equipped with 1536-pin array (10nl slotted pins, V&P Scientific, San Diego, CA). The plates are then incubated at 37 degrees C in 5% humidified CO2 for 48 hours. The NCGC in-house luciferase substrate reagent, Buglite, is then added (2.5microl) and plates incubated for 15 minutes, before being transferred to a ViewLux high-throughput CCD imager (PerkinElmer) wherein single end-point measurements of luminescence are acquired using a clear filter. The positive control compound, genistein, will be pinned into dedicated control columns on each plate, including a 16-point 1:3 titration in duplicate, as well as a 10microM maximum activation control, allowing for the normalization of screening activity. DMSO will be pinned into a separate column as a negative control.
All screening operations will be performed on a fully integrated robotic system (Kalypsys, San Diego, CA) containing one RX-130 and two RX-90 anthropomorphic robotic arms (Staubli, Duncan, SC). Library plates will be screened starting from the lowest and proceeding to the highest concentration. Vehicle-only plates, with DMSO being pin-transferred to columns 5-48, will be inserted uniformly at the beginning and the end of each library in order to monitor and record any shifts in the background, which can be affected by reagent dispensers or loss in enzyme activity over time. […]
Potency is the fitted concentration of half-maximal effect; tags give direction and shape of the fitted curve.

With `COc1cc(/C=C2/C(=N)N3C(SC)=NSC3=NC2=O)ccc1OC(=O)c1ccco1` as the molecule, how does the “activation” value read?
Its value is inactive: 60.1%.

With `Cc1ccc(OCCCN2CCOCC2)c([N+](=O)[O-])c1` as the molecule, how does the Potency read?
The Potency was inconclusive: 14.1 µM [activator, partial curve, poor fit].

With `O=C(COC(=O)Cn1cnc2ccccc21)Nc1cc2c(cc1Cl)C(=O)c1ccccc1C2=O` as the molecule, how does the Potency read?
The Potency was inconclusive: 7.08 µM [activator, partial curve, poor fit].

For `COc1ccc(C)cc1NC(=O)CCCN1C(=S)NC(C)(C)CC1C` (stereo not drawn), which “activation” value is on record?
Its value is inactive: -0.633%.

Which “activation” value does the source give for `CNc1nnc(Sc2ncccc2[N+](=O)[O-])s1` here?
Its value is inactive: -6.52%.

With `CS(=O)(=O)Nc1ccc(C2=NN(S(C)(=O)=O)C(c3ccc4c(c3)OCO4)C2)cc1` (stereo not drawn) as the molecule, how does the Potency read?
Its Potency is active: 4.47 µM.

With `Cc1ccc(CC(=O)N/N=C/c2ccc3c(c2)OCO3)cc1` as the molecule, how does the Potency read?
The Potency was active: 8.91 µM.

With `COc1ccc(NC(=S)N2CCC(c3ccccc3)C2)cc1` (stereo not drawn) as the molecule, how does the Potency read?
Its Potency is active: 2.82 µM.

Which “activation” value does the source give for `CCc1ccc2occ(CC(=O)Nc3ccc(OC)c(Cl)c3)c2c1` here?
The value was inactive: 11.6%.

Which Potency does the source give for `C/C(=N\NC(=O)c1cccs1)c1ccc2ccccc2c1` here?
The Potency was inconclusive: 8.91 µM [activator, partial curve, poor fit].

With `Cc1nn(-c2ccccc2)c(C)c1C(=O)NCCc1ccccc1` as the molecule, how does the Potency read?
The Potency was inconclusive: 15.8 µM [activator, partial curve, poor fit].

For `COc1ccc(-c2cc(-c3ccc(Cl)cc3)n[nH]2)c(O)c1`, which Potency is on record?
The Potency was inconclusive: 2.82 µM [activator, full curve, poor fit].

For `N#C/C(=C/c1ccc(N2CCCCCC2)o1)c1cccc(F)c1`, which Potency is on record?
Its Potency is inconclusive: 35.5 µM [activator, single point].

With `Clc1ccc(C=NN2CCCCCC2)cc1Cl` as the molecule, how does the Potency read?
The Potency was active: 8.91 µM.

For `O=C(Cn1nc(Cc2ccncc2)c2ccccc2c1=O)N1CCc2ccccc2C1`, which “activation” value is on record?
The value was inactive: 3.94%.

Which Potency does the source give for `CCCCOc1ccc(C(=O)Nc2cccc(C)n2)cc1` here?
Its Potency is active: 2.82 µM.

For `COc1ccccc1NC(=O)CSc1nnc(-c2ccc(C)cc2)o1`, which Potency is on record?
The Potency was inconclusive: 0.501 µM [activator, full curve, poor fit].

For `CC1(C)CN(c2ccc(N3CC(C)(C)C3=O)cc2)C1=O`, which Potency is on record?
Its Potency is inconclusive: 20 µM [activator, partial curve, poor fit].

With `Cc1occc1C(=O)N/N=C/C=C/c1ccccc1[N+](=O)[O-]` as the molecule, how does the “activation” value read?
Its value is inactive: 41.5%.

For `Cc1ccc(NC(=O)c2cc(-c3ccccc3)n[nH]2)cc1`, which Potency is on record?
The Potency was inconclusive: 22.4 µM [activator, single point].

With `Cc1ccc([N+](=O)[O-])cc1N(CC(=O)Nc1ccc(S(=O)(=O)Nc2cccc(C(F)(F)F)c2)cc1)S(C)(=O)=O` as the molecule, how does the “activation” value read?
The value was inactive: -94.8%.

With `O=C(O)c1ccc2nc(-c3ccccc3)sc2c1` as the molecule, how does the activation read?
Its activation is inconclusive: -79% [activator].

With `COc1cccc(NC(=O)C(=O)N/N=C(\C)CC(=O)Nc2ccc(NC(C)=O)cc2)c1` as the molecule, how does the Potency read?
Its Potency is inconclusive: 22.4 µM [activator, single point].

For `Cc1ccc(-n2nnc(-c3nccs3)n2)cc1`, which activation is on record?
The activation was inconclusive: -51.1% [activator].

With `CCCc1cc(C(=O)NCCc2ccccc2)no1` as the molecule, how does the Potency read?
Its Potency is active: 3.98 µM.

Which Potency does the source give for `CCCOc1ccc(-c2cn3ccccc3n2)cc1[N+](=O)[O-]` here?
The Potency was inconclusive: 1.58 µM [activator, partial curve, poor fit].

For `COc1ccc(NC(=S)Nc2ncccc2C)c(OC)c1`, which Potency is on record?
Its Potency is inconclusive: 7.08 µM [activator, partial curve, poor fit].

Which Potency does the source give for `O=C(O)CC1=C(Nc2ccccc2)C(=O)N(c2ccccc2)C1c1ccc(F)cc1` (stereo not drawn) here?
Its Potency is inconclusive: 20 µM [activator, single point].

For `c1ccc(OCc2nnc(-c3ccccc3)o2)cc1`, which Potency is on record?
Its Potency is active: 7.08 µM.

With `O=C(Nc1cccnc1)c1cc(-c2ccc(Cl)cc2Cl)on1` as the molecule, how does the Potency read?
Its Potency is inconclusive: 11.2 µM [activator, partial curve, poor fit].

Which Potency does the source give for `C/C(=N\Nc1nncc2ccccc12)c1ccc(C(C)(C)C)cc1` here?
Its Potency is active: 2.51 µM.

With `Cc1ccc2nc(NC(=O)CSc3cc(C)[nH]c(=O)n3)sc2c1` as the molecule, how does the Potency read?
The Potency was inconclusive: 14.1 µM [activator, single point].

With `CCOC(=O)C(=CN=C(N)Nc1nc2ccccc2o1)C(=O)OCC` as the molecule, how does the Potency read?
Its Potency is inconclusive: 15.8 µM [activator, partial curve, poor fit].

Which “activation” value does the source give for `CN(C)c1ccc(NC(=O)C2C3C=CC(C3)C2C(=O)O)cc1` (stereo not drawn) here?
Its value is inactive: -28%.

For `C=CCOc1ccc(C=CC(=O)c2c(O)c(OC)c(OC)c(OC)c2OC)cc1`, which “activation” value is on record?
The value was inactive: -47.6%.

For `Cc1occc1C(=O)N/N=C/c1cccs1`, which Potency is on record?
The Potency was active: 12.6 µM.

For `CCc1ccc(/C=N/NC(=O)c2cc(C)on2)s1`, which Potency is on record?
The Potency was inconclusive: 35.5 µM [activator, single point].

With `CC(C)(C)OC(=O)N/N=C/c1cccc([N+](=O)[O-])c1` as the molecule, how does the Potency read?
The Potency was inconclusive: 1 µM [activator, full curve, poor fit].

With `COc1ccc(C(=O)Nc2cccc(OC)c2)cc1` as the molecule, how does the Potency read?
Its Potency is inconclusive: 1.58 µM [activator, partial curve, poor fit].

For `COc1ccccc1N1CCN(/N=C(\C)c2ccc(O)cc2)CC1`, which Potency is on record?
Its Potency is inconclusive: 11.2 µM [activator, partial curve, poor fit].

Which “activation” value does the source give for `CC(=O)N1CCN(S(=O)(=O)c2ccc3c(c2)OCCO3)CC1` here?
The value was inactive: -1.63%.

For `COc1cc2c(cc1OC)C(C)N(C(=O)Cn1ncc3c1-c1cc(C)ccc1OC3)CC2` (stereo not drawn), which “activation” value is on record?
Its value is inactive: -10.5%.

Which Potency does the source give for `Cc1ccc(OC(=O)c2c(C)nn(-c3ccccc3)c2C)cc1` here?
The Potency was inconclusive: 11.2 µM [activator, partial curve, poor fit].

Which “activation” value does the source give for `CCCCCn1c(CCC(=O)Oc2ccccc2OC)nc2c1c(=O)[nH]c(=O)n2CCCC` here?
Its value is inactive: -10.2%.

With `COc1n[nH]c(C(=O)Nc2nc3ccccc3s2)c1[N+](=O)[O-]` as the molecule, how does the Potency read?
The Potency was inconclusive: 7.08 µM [activator, partial curve, poor fit].

For `C(=N\N1CCN(Cc2ccccc2)CC1)/c1ccccc1`, which Potency is on record?
Its Potency is inconclusive: 17.8 µM [activator, single point].

With `Cc1cc(Br)ccc1SCC(=O)OCC(O)=C(C#N)c1nc2ccccc2[nH]1` as the molecule, how does the “activation” value read?
The value was inactive: -28.9%.

Which Potency does the source give for `CC(=O)Nc1nnc(-c2ccc3c(c2)CCCC3)o1` here?
Its Potency is inconclusive: 3.16 µM [activator, partial curve, poor fit].
